Results reported in the supplement of paper PMC10369915.
Some of the results follow. No stated cut-off is given here; in the data, active = 3.2 or more and inactive = the rest. The signal is at background level for most entries.

How the values were obtained:
Assay in all cases: enrichment score (SH2-bound / input frequency) (ratio); bacterial display of known human phosphotyrosine sites (pTyr-Var adds point mutants) read by sequencing; higher = stronger binding; tyrosines were phosphorylated by kinases first
Details in all cases: peptide library: pTyr-Var
SHP2 C-SH2 domain E139D = molecular target: SHP2 C-SH2 domain E139D
[1] = molecular target: SHP2 C-SH2 domain wild-type
SHP2 N-SH2 domain L43F = molecular target: SHP2 N-SH2 domain L43F
SHP2 N-SH2 domain T42A = molecular target: SHP2 N-SH2 domain T42A
SHP2 N-SH2 domain T52S = molecular target: SHP2 N-SH2 domain T52S
[2] = molecular target: SHP2 N-SH2 domain wild-type
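Further: displayed peptides selected on beads carrying the immobilized SH2 domain, with library peptides lacking any tyrosine serving as negative controls.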

Binder	enrichment score (SHP2 C-SH2 domain E139D)	enrichment score [1]	enrichment score (SHP2 N-SH2 domain L43F)	enrichment score (SHP2 N-SH2 domain T42A)	enrichment score (SHP2 N-SH2 domain T52S)	enrichment score [2]
GFSDPYVKAFL [SYT3_Y470_S474F]	inactive: 1.01	inactive: 0.99	inactive: 0.74	inactive: 0.948	inactive: 0.886	inactive: 0.852
VRFMEYETQVK [TARDBP_Y155_T153M]	inactive: 1.19	inactive: 1.14	inactive: 1.29	inactive: 1.01	inactive: 0.959	inactive: 1.05
VLNHAYENLTR [SYNE2_Y3255_D3253H]	active: 3.39	active: 3.38	active: 3.48	active: 3.99	active: 3.82	inactive: 3.2
APGNAYGDAGF [SYP_Y250_D248N_YF]	inactive: 0.588	inactive: 0.455	inactive: 0.627	inactive: 0.434	inactive: 0.527	inactive: 0.491
SDVCMYRKNTF [SYNE2_Y570_I574T_YF]	inactive: 0.552	inactive: 0.933	inactive: 0.696	inactive: 0.694	inactive: 0.657	inactive: 0.886
SYCYRYRCAPR [SUMF1_Y344_A348P]	inactive: 0.236	inactive: 0.2	inactive: 0.152	inactive: 0.187	inactive: 0.264	inactive: 0.184
VTVLDYDKTGK [SYT1_Y365_I368T]	inactive: 0.87	inactive: 0.555	inactive: 0.572	inactive: 0.759	inactive: 0.793	inactive: 0.854
ESMLRYDVFGG [STOX1_Y607_E608D_YF]	inactive: 0.936	inactive: 0.824	inactive: 0.963	inactive: 0.866	inactive: 0.888	inactive: 0.729
RIILLYIFLKN [STXBP1_Y411]	inactive: 2.39	inactive: 1.82	inactive: 1.98	inactive: 2.17	inactive: 2.14	inactive: 1.99
LRYDVYGGENE [STOX1_Y610_E608D]	inactive: 0.958	inactive: 0.732	inactive: 0.924	inactive: 0.837	inactive: 0.912	inactive: 1.24
HCHEGYVLHGA [SVEP1_Y2921_I2922V]	inactive: 1.9	inactive: 1.95	inactive: 2.18	inactive: 1.6	inactive: 1.72	inactive: 1.64
AAVPAYDKIRV [STXBP2_Y401]	inactive: 0.877	inactive: 0.949	inactive: 0.681	inactive: 1.11	inactive: 0.518	inactive: 0.905
SFCFRYRCAAR [SUMF1_Y344_YF]	inactive: 0.295	inactive: 0.258	inactive: 0.263	inactive: 0.331	inactive: 0.244	inactive: 0.249
SFCFRYCCAAR [SUMF1_Y344_R345C_YF]	inactive: 0.816	inactive: 0.558	inactive: 0.639	inactive: 0.667	inactive: 0.672	inactive: 0.518
GFQPDYGQPAG [SYP_Y278_YF]	inactive: 0.72	inactive: 0.514	inactive: 0.573	inactive: 0.434	inactive: 0.666	inactive: 0.603
RIFDYYSARKA [STOX1_Y858]	inactive: 0.602	inactive: 0.58	inactive: 0.489	inactive: 0.457	inactive: 0.52	inactive: 0.472
FEEVVYQAMEE [TACC3_Y684]	inactive: 0.847	inactive: 0.883	inactive: 0.963	inactive: 0.747	inactive: 0.806	inactive: 1.08
GFSDPYVKASL [SYT3_Y470]	inactive: 0.85	inactive: 0.729	inactive: 0.994	inactive: 0.586	inactive: 0.71	inactive: 0.953
EYLQKYKGFKI [SYNE1_Y6953]	inactive: 0.53	inactive: 0.723	inactive: 0.556	inactive: 0.504	inactive: 0.575	inactive: 0.751

Binder	enrichment score (SHP2 C-SH2 domain E139D)	enrichment score [1]	enrichment score (SHP2 N-SH2 domain L43F)	enrichment score (SHP2 N-SH2 domain T42A)	enrichment score (SHP2 N-SH2 domain T52S)	enrichment score [2]
RIFDFYSARKT [STOX1_Y858_A863T_YF]	inactive: 1.12	inactive: 0.763	inactive: 0.882	inactive: 0.644	inactive: 0.984	inactive: 0.886
VRFTEYETQVK [TARDBP_Y155]	inactive: 0.849	inactive: 1.11	inactive: 0.88	inactive: 0.931	inactive: 0.745	inactive: 1.01
GESKDYALHAG [SVIL_Y185_V189A]	inactive: 0.499	inactive: 0.525	inactive: 0.537	inactive: 0.447	inactive: 0.437	inactive: 0.473
REVPVYIGEDS [SYNM_Y460]	inactive: 1.16	inactive: 1.04	inactive: 0.904	inactive: 1.11	inactive: 0.804	inactive: 0.851
HCHEGYILHGA [SVEP1_Y2921]	inactive: 2.11	inactive: 2.02	inactive: 2.24	inactive: 1.95	inactive: 1.94	inactive: 1.56
APGDAYGDAGY [SYP_Y250]	inactive: 0.481	inactive: 0.386	inactive: 0.319	inactive: 0.389	inactive: 0.427	inactive: 0.413
VLNDAYENLTR [SYNE2_Y3255]	inactive: 1.31	inactive: 1.31	inactive: 1.59	inactive: 1.05	inactive: 1.37	inactive: 1.25
GYQPDYGQPAG [SYP_Y278]	inactive: 0.585	inactive: 0.545	inactive: 0.45	inactive: 0.464	inactive: 0.502	inactive: 0.567
EVEFQYPFRLH [SYP_Y73_E72Q]	inactive: 0.87	inactive: 0.731	inactive: 0.801	inactive: 0.646	inactive: 0.859	inactive: 0.75
SYCYRYRCAAQ [SUMF1_Y344_R349Q]	active: 4.59	active: 3.44	active: 3.59	active: 3.6	active: 4.06	active: 3.43
GYQPEYGQPAG [SYP_Y278_D277E]	inactive: 0.566	inactive: 0.585	inactive: 0.528	inactive: 0.469	inactive: 0.582	inactive: 0.707
ESMLRYEVFGG [STOX1_Y607_YF]	inactive: 0.935	inactive: 1.03	inactive: 0.762	inactive: 1.14	inactive: 0.979	inactive: 0.947
SSPQLYLVPFL [TAF4_Y652_P651L]	inactive: 1.3	inactive: 1.05	inactive: 1.61	inactive: 1.4	inactive: 1.56	inactive: 1.28
SFCFRYRCAAW [SUMF1_Y344_R349W_YF]	active: 5.02	active: 3.4	active: 3.88	active: 3.46	active: 3.78	inactive: 2.86
FSAGTYPRMEE [SYCN_Y108_L111M]	inactive: 0.846	inactive: 0.867	inactive: 0.678	inactive: 0.617	inactive: 0.712	inactive: 0.719
FRKNIYNVKST [SYNE2_Y575_YF]	inactive: 0.753	inactive: 0.433	inactive: 0.601	inactive: 0.469	inactive: 0.684	inactive: 0.6
SYCYRYRCAAR [SUMF1_Y344]	inactive: 0.211	inactive: 0.317	inactive: 0.185	inactive: 0.127	inactive: 0.331	inactive: 0.14
PVRIAYDRPRG [SUGP2_Y985]	inactive: 0.411	inactive: 0.244	inactive: 0.342	inactive: 0.36	inactive: 0.344	inactive: 0.386
